From PubChem BioAssay AID488969 (Vanderbilt High Throughput Screening Facility, 2010)
In all, about 110,000 compounds were measured (“z-score”: median about -0.1, highest 2% from about 2 on). The list shows a part of the results. Calls of active or inactive are those of the source.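 Rule for the calls: active = z-score in the third read window above 3 or below -3; inactive = the rest.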

Molecular target: Metabotropic glutamate receptor 8 (Rattus norvegicus) (UniProt P70579)
Assay: rat mGluR8 modulators via GIRK flux, primary screen, cell-based, thallium flux, HTS (AID 488969)
Conditions: HEK293 rat mGluR8, GIRK (G protein-gated inwardly rectifying potassium channel) thallium flux, FluoZin2; at 10 µM; stronger effect = higher value; submaximal glutamate (EC20) added with thallium

Sequence of UniProt P70579 (P70579 whole entry, looked up): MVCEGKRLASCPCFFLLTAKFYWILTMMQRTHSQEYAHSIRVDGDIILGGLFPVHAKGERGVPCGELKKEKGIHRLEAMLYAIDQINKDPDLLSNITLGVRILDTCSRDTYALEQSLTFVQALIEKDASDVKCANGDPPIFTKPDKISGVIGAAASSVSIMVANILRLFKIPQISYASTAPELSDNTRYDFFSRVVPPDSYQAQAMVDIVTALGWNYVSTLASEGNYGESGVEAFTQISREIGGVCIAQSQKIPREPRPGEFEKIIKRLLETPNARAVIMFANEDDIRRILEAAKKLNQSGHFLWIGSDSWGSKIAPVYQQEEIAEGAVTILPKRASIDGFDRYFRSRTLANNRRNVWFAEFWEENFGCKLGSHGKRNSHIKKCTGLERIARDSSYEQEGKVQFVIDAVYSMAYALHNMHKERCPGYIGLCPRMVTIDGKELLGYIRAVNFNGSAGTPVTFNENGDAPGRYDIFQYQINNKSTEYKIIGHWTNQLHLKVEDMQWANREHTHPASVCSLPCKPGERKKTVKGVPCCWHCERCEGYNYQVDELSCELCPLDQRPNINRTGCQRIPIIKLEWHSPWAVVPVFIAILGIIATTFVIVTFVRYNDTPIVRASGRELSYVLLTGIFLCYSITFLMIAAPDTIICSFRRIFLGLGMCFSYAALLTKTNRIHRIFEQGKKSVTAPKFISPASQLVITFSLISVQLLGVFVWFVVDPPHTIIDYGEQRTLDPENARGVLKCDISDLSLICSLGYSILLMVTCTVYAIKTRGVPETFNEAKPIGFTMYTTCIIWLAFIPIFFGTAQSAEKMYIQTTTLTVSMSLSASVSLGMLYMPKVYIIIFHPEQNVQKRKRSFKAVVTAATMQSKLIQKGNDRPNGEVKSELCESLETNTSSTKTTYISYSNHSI

Row | SMILES | z-score
1 | COc1cccc(OCC(=O)NNC(=O)Cc2cccs2)c1 | -0.0246
2 | CC1(C)Cc2c(c(-c3ccco3)[nH]c(=O)c2C#N)CO1 | 0.117
3 | CCN(CC)c1ccc(/C=N/Nc2cccc(C)c2)c(O)c1 | -0.281
4 | COc1ccc(-c2nc3cc(C)ccn3c2NCC2CCCO2)cc1OC (stereo unspecified) | -1.39
5 | Cc1c(C(=O)NCCC2=CCCCC2)oc2ccc(S(=O)(=O)N3CCOCC3)cc12 | -1.03
6 | COc1cc(OC)c(OC)cc1CN1CCCC(C(=O)N2CCCCC2)C1 (stereo unspecified) | 0.419
7 | Cc1cccc(-n2nc3c(c2NC(=O)c2ccc(Br)o2)CSC3)c1 | -0.288
8 | Cc1ccc(C)c(NC(=O)c2ccc(N(C)S(C)(=O)=O)cc2)c1 | 0.222
9 | Cc1cccc(NC(=O)c2onc3c2CCCC3)c1C | -0.00447
10 | C/C(=N\NC(=O)c1ccc(Cl)cc1)c1ccc(Br)s1 | active: 8.88
11 | O=C(CN1CCCC1)N1CCCc2c1c(=O)oc1ccc(OCc3ccccc3)cc21 | -0.528
12 | COC(=O)COc1ccc(S(=O)(=O)N2CCN(c3ccccc3F)CC2)cc1C | -0.0482
13 | C/C(=N\NC(=O)CNc1cccc(C)c1)c1ccc(Br)s1 | 0.0989
14 | Brc1ccc(C2Nc3cccc4cccc(c34)N2)o1 | -1.23
15 | COc1cccc(S(=O)(=O)N2CCN(c3ccccc3F)CC2)c1 | 0.00191
16 | COC(=O)c1[nH]c2ccc(C)cc2c1NC(=O)CN1CCCC(C)(C)C1 | -0.603
17 | COP(=O)(OC)c1nc(-c2cccc3ccccc23)oc1NCCc1ccccc1 | -0.188
18 | CCOc1ccc(C(=O)NCC(=O)OCC(=O)Nc2ccccc2OC)cc1 | -0.281
19 | CN(CC(=O)Nc1cccc(F)c1)C(=O)CCCc1cccs1 | -0.141

Row | SMILES | z-score
20 | COc1ccccc1C(=O)N1CCCC1(C#N)c1ccccc1 (stereo unspecified) | -0.00908
21 | Cc1ccc(OC(=O)CCC(=O)Nc2ccc(S(=O)(=O)Nc3cc(C)on3)cc2)cc1 | -0.0291
22 | CN1CCN(c2nc3c(c(=O)n(C)c(=O)n3C)n2Cc2cccc3ccccc23)CC1 | -2.98
23 | Cc1cc(OCC(=O)Nc2ccccc2F)nc(C(C)C)n1 | 0.179
24 | COc1ccc(-c2coc3cc4oc(=O)c5ccccc5c4cc23)cc1F | -0.146
25 | CC(NC(=O)c1ccccc1)c1nc2ccccc2n1Cc1ccccc1F (stereo unspecified) | -0.264
26 | COC(=O)c1ccccc1NC(=O)N1CCN(S(=O)(=O)c2ccc(Cl)cc2)CC1 | -0.476
27 | CCc1ncc(C(O)c2cccc(OC)c2OC)n1C (stereo unspecified) | 0.954
28 | CCCCN(Cc1ccco1)C(=O)c1cc2c(=O)[nH]c3ccc(C)cc3c2s1 | 0.0051
29 | CC(C)c1ccc(N(CC(=O)N/N=C/c2ccc(OC3CSC3)cc2)S(=O)(=O)c2ccccc2)cc1 | -0.152
30 | C=CCc1c(C)nc(C)nc1N/N=C/c1ccccc1O | 2.25
31 | CCOCCCNC(=O)C(NC(=O)CNC(=O)c1ccccc1)c1ccccc1 (stereo unspecified) | -0.0841
32 | Cc1nc2c(C)cccc2cc1C(=O)N/N=C/c1cccnc1 | -0.392
33 | O=C(C1CC1)N(Cc1ccco1)c1nc(-c2ccccc2)cs1 | -0.135
34 | COc1ccc(N(CC(=O)NCc2cccs2)S(=O)(=O)c2cccnc2)cc1 | -0.456
35 | COc1cc2c(cc1OC)C(c1cccs1)NCC2 (stereo unspecified) | -0.269
36 | Cc1cc(Cl)ccc1OCC(=O)NCc1ccncc1 | -0.405
37 | Cc1ccc(C2OCC3(CO)COC(c4ccc(C)cc4)N23)cc1 (stereo unspecified) | -0.0099
38 | COCCNC(=O)c1onc(CSc2cc(C)ccc2C)c1C(=O)O | -0.0769

Row | SMILES | z-score
39 | CC1=C(C(=O)Nc2ccccn2)C(c2ccccc2)n2ncnc2N1 (stereo unspecified) | -0.123
40 | COc1ncnc2c1N=C1CC(C)(C)CC(N)=C1S2 | 0.0669
41 | Cc1n(CC(O)COC2CCCCC2)c2ccccc2[n+]1C (stereo unspecified) | 0.638
42 | CN(C)c1ccc([N+](=O)[O-])cc1C(=O)O | -0.133
43 | O=C(Nc1ccccc1[N+](=O)[O-])C1C(c2ccccc2)=C1c1ccccc1 | -0.229
44 | Cc1nn(C)cc1C(=O)Nc1cc(Oc2ccc(Cl)cc2)cc([N+](=O)[O-])c1 | -0.126
45 | CCCCOC(=O)c1ccc(NC(=O)Nc2ccc(OC)c(OC)c2)cc1 | -0.113
46 | C=CCOc1cccc(C2C(C(=O)c3ccc(C)o3)=C(O)C(=O)N2Cc2ccncc2)c1 (stereo unspecified) | -1.94
47 | COc1ccc(CC(=O)Nc2ccc(-c3cn4ccccc4n3)cc2)cc1OC | -0.363
48 | COc1cc(NC(=O)COC(=O)c2nc3nc(C)cc(C)n3n2)cc(OC)c1 | -0.759
49 | COc1ccc(/C=N/NC(=O)CSCc2ccc([N+](=O)[O-])cc2)cc1OC | -0.208
50 | O=C(CCC(=O)OCCCC(F)(F)C(F)(F)F)Nc1ccc(Cl)cc1Cl | -0.26
51 | COc1cc(C(=O)NCCc2cn3ccc(C)cc3n2)cc(OC)c1OC | -0.397
52 | COc1ccc(C)cc1S(=O)(=O)NCCc1ccccc1 | -0.105
53 | CCCCOC(C)n1cc(F)c(=O)[nH]c1=O (stereo unspecified) | -0.225
54 | O=S(=O)(Nc1ccc(-n2cccc2)cc1)c1ccc(Cl)cc1Cl | -0.0372
55 | CC(C)c1ccc2occ(-c3nn[nH]n3)c(=O)c2c1 | active: 3.29
56 | CC(C)(C)NC(=O)c1ccccc1-c1nc(-c2ccccc2Cl)no1 | -0.71
